Here are results for 45 compounds from PubChem BioAssay AID2528 (National Center for Advancing Translational Sciences (NCATS), 2010).

Screen size: about 350,000 compounds; about 700 (0.2%) were called active. The call rests on the fitted dose curve; in most records, active means well fitted inhibition curve with a large enough effect; inconclusive means small, poorly fitted or top-dose-only effect; inactive means flat fitted curve, though single readings scatter. The list shows a part of the results, in another mix than the full data. Where a structure was tested more than once in an assay, its records may differ in their call.
Potency means the concentration at half of the fitted maximal effect.

The target of this assay is RecQ-like DNA helicase BLM (Homo sapiens) (UniProt P54132). The assay is described as follows: qHTS Assay for Inhibitors of Bloom's syndrome helicase (BLM). Further: nearly all actives have a fitted effect of over 35% in size.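 On activity change, negative = inhibition: plate controls were vehicle for no effect and no enzyme for full effect.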 The conditions noted are these: recombinant BLM DNA unwinding, fluorescence dequenching; series mostly up to 56.1 µM; activity change, negative = inhibition: at the top concentration. (qHTS replaces the single test concentration by a dilution series.)
UniProt P54132, sequence (P54132 whole entry, looked up): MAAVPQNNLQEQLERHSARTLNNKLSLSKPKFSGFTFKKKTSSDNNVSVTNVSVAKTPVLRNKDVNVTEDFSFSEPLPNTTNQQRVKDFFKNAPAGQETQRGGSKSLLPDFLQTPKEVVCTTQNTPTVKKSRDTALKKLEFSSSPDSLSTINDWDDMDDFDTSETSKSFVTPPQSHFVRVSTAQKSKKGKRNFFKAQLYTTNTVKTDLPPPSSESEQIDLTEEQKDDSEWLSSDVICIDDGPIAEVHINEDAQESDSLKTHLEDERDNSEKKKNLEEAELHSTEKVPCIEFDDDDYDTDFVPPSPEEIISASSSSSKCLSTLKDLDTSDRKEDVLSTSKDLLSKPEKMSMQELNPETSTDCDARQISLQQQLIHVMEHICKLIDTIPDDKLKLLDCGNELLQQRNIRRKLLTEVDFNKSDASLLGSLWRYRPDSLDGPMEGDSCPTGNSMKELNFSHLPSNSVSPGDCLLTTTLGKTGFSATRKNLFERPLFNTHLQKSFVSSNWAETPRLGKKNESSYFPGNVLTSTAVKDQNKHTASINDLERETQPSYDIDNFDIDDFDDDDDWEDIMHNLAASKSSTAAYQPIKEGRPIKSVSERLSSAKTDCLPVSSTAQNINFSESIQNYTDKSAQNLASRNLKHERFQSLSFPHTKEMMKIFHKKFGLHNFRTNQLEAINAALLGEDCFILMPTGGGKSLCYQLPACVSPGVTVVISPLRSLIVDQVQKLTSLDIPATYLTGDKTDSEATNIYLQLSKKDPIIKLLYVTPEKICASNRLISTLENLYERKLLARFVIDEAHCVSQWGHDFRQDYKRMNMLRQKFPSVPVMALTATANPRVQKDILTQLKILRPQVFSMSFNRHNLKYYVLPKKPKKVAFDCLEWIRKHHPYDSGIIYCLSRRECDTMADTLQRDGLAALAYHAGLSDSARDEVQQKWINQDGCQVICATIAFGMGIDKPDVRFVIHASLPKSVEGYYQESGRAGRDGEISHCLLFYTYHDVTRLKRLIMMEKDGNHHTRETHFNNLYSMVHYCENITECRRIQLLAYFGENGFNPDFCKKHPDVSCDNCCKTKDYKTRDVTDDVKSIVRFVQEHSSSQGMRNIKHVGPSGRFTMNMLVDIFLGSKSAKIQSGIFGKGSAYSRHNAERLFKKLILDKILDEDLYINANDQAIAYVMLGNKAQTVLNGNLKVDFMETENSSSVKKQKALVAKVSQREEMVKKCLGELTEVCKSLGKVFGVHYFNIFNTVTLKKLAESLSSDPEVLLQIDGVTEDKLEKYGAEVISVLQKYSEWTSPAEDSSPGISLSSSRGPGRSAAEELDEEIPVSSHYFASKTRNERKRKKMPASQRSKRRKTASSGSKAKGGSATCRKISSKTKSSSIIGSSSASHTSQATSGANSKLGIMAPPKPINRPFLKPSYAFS
On to `O=C(O)c1cc(=O)c2ccc(Cl)cc2[nH]1`, for which the Potency result is “inactive”.

In the case of `O=C(O)CN(CC(=O)O)Cc1cc2c(-c3ccccc3C(=O)O)c3cc(CN(CC(=O)O)CC(=O)O)c(=O)cc-3oc2cc1O`, the Potency is active: 15.8 µM.

With `CN(C)CC[C@@H](c1ccc(Cl)cc1)c1ccccn1`, the Potency entry is “inactive”.

For the compound `Nc1cc(-c2ccncc2)c[nH]c1=O`, the Potency entry is “inactive”.

As to `O=C1C(=O)c2ncccc2-c2cccnc21`, the Potency was active: 15.8 µM.

Consider `Cc1ccccc1N1C(=O)c2cc(S(N)(=O)=O)c(Cl)cc2NC1C` (stereo not given), for which the “activity change, negative = inhibition” value is inactive: -5.18%.

On to `Cc1cc2nc3c(=O)[nH]c(=O)[nH]c3nc2c([N+](=O)[O-])c1N`, for which the Potency was active: 15.8 µM.

As for `Cc1ccc(NC2=CC(=O)c3sc(C)nc3C2=O)cc1`, the Potency is active: 7.94 µM.

`CNc1ncnc2c1ncn2[C@@H]1O[C@H](CO)[C@@H](O)[C@@H]1O`: the “activity change, negative = inhibition” value was inactive: 4.87% [at 21.4 µM].

With `CC1(OC(=O)c2cccs2)C(=O)C=C2C=C3CCCN3C=C2C1=O` (stereo not given), the Potency is active: 22.4 µM.

Consider `COc1cc(NCCCC(C)N)c2ncccc2c1` (stereo not given), for which the “activity change, negative = inhibition” value was inactive: -1.95%.

`N=C1/C(=C\c2ccc(-c3cccc(C(=O)O)c3)o2)C(=O)N=C2SC=C(c3ccccc3)N12`: the “activity change, negative = inhibition” value was inactive: -23.6%.

As for `CC(=O)O[C@@H]1C(=O)[C@@]2(C)[C@H](O)C[C@H]3OC[C@]3(OC(C)=O)[C@@H]2[C@H](OC(=O)c2ccccc2)[C@@]2(O)C[C@H](OC(=O)[C@@H](O)[C@@H](NC(=O)c3ccccc3)c3ccccc3)C(C)=C1C2(C)C` (stereo in doubt), the “activity change, negative = inhibition” value was inactive: -1.35% [at 21.4 µM].

In the case of `Cc1nc(SCC(=O)c2ccccc2)c(C#N)c(-c2ccco2)c1C(=O)NCc1ccco1`, the Potency was active: 25.1 µM.

Take `CCc1cccc2c3c([nH]c12)C(CC)(CC(=O)O)OCC3` (stereo not given): the Potency result is “inactive”.

With `S=C(S)O[C@@H]1C[C@@H]2C[C@H]1[C@@H]1CCC[C@H]21`, the “activity change, negative = inhibition” value was inactive: 0.932%.

Take `OC[C@H]1O[C@@H](n2cnc3cncnc32)[C@H](O)[C@@H]1O`: the “activity change, negative = inhibition” value was inactive: 1.26%.

On to `N#Cc1cc2[nH]c(=O)c(=O)[nH]c2cc1[N+](=O)[O-]`, for which the Potency result was “inactive”.

Turning to `C[C@]12CC[C@@H]3c4ccc(O)cc4CC[C@H]3[C@@H]1CCC2=O`, the “activity change, negative = inhibition” value was inactive: -3.03%.

With `COC(=O)c1c(-c2cc(OC)c(OC)c(OC)c2)c2ccnc(OCc3ncccn3)c2c(=O)n1Cc1ccnc(C)c1`, the “activity change, negative = inhibition” value was inactive: 4.06%.

As to `CC1(C)S[C@@H]2[C@H](NC(=O)C(N)c3ccccc3)C(=O)N2[C@H]1C(=O)O` (stereo not given in full), the “activity change, negative = inhibition” value is inactive: -0.798% [at 21.4 µM].

Consider `Cc1c2c(c(O)c3c(O)cccc13)C(=O)O[C@H]2C1C(N(C)C)C(O)=C(C(N)=O)C(=O)[C@H]1O` (stereo not given in full), for which the Potency was active: 17.8 µM.

For the compound `CN(C)c1ccc(-c2nc(NCc3cccnc3)c3ccccc3n2)cc1`, the Potency is active: 15.8 µM.

`CCCCCCCC/C=C\CCCCCCCC(=O)NCCc1ccc(O)c(O)c1`: the Potency entry was “inactive”.

Regarding `CC(C)(C)c1ccc([C@@H](O)CCCN2CCC(C(O)(c3ccccc3)c3ccccc3)CC2)cc1`, the “activity change, negative = inhibition” value is inactive: -0.0518% [at 21.4 µM].

In the case of `N#C/C(=C\c1cc(Br)c(O)c(Br)c1)c1nc2ccccc2c(=O)[nH]1`, the Potency is active: 12.6 µM.

With `CCOC(=O)C1=C[C@]2(CC)CCCN3CCc4c(n1c1ccccc41)[C@@H]32`, the Potency result was “inactive”.

`COC(=O)[C@@H]1[C@H]2C[C@H]3c4[nH]c5ccccc5c4CCN3C[C@@H]2CC[C@@H]1O`: the “activity change, negative = inhibition” value is inactive: 1.02%.

Take `CC(C)C[C@H](NC(=O)[C@H]1O[C@@H]1C(=O)O)C(=O)NCCCCN=C(N)N`: the “activity change, negative = inhibition” value was inactive: 4.69%.

As for `O=C1OC(Nc2cc(Br)cc3cccnc23)c2ccccc21` (stereo not given), the Potency was active: 22.4 µM.

For the compound `O=C(CSc1nc(O)cc(=O)[nH]1)Nc1ccc2c(c1)CCC2`, the Potency was active: 22.4 µM.

Turning to `O=C1CCc2cc(OCCCCc3nnnn3C3CCCCC3)ccc2N1`, the Potency result is “inactive”.

Consider `Fc1ccc(C(c2ccc(F)cc2)N2CCN(C/C=C\c3ccccc3)CC2)cc1`, for which the Potency result was “inactive”.

Regarding `C[C@@H](NC(=O)/C(C#N)=C/c1ccc(O)c(O)c1)c1ccccc1`, the “activity change, negative = inhibition” value is inactive: -13.5%.

`O=c1oc2cc(O)ccc2c2oc3cc(O)ccc3c12`: the “activity change, negative = inhibition” value was inactive: -24.8%.

In the case of `OCc1cc(C(O)CNCCCCCCOCCCCc2ccccc2)ccc1O` (stereo not given), the Potency result is “inactive”.

On to `N[C@H](Cc1ccc(Cl)cc1)C(=O)O`, for which the “activity change, negative = inhibition” value was inactive: 0.0534%.

Turning to `COc1cc2cc3c4c(cc(OC)c(OC)c4c2cc1OC)CCN3C`, the Potency is active: 3.98 µM.

For `CC(C)c1ccc(S(=O)(=O)/N=C2/C=C(Sc3ncn[nH]3)C(=O)c3ccccc32)cc1`, the Potency was active: 10 µM.

Consider `COc1cccc(/C=N/Nc2ncnc3c2[nH]c2ccc(C)cc23)c1OC`, for which the Potency is active: 14.1 µM.

For the compound `CC(=O)N[C@H](CS)C(=O)O`, the “activity change, negative = inhibition” value was inactive: -8.41%.

As to `CCCCCCCCCCC/C=C\C(C)(C)/C=C\CCCC(=O)O`, the “activity change, negative = inhibition” value was inactive: -2.86%.

Regarding `Cc1ccc(SCc2cc(=O)c3c(=O)n(-c4ccccc4)[nH]c3[nH]2)cc1`, the Potency is active: 15.8 µM.

Take `CN(C)[C@@H]1C(=O)C(C(N)=O)=C(O)[C@@]2(O)C(=O)C3=C(O)c4c(O)ccc(Cl)c4[C@@H](O)[C@H]3C[C@@H]12`: the “activity change, negative = inhibition” value was inactive: -8.62%.

`COc1c2c(nc3ccccc13)OC(C(C)(O)CO)C2` (stereo not given): the Potency result was “inactive”.
